The numbers were not newly measured in article PMC11006913, which cites them from elsewhere.

Some of the results follow.

Among the targets are ARX (Homo sapiens) (UniProt Q96QS3); ARX L343Q (Homo sapiens) (UniProt Q96QS3); ARX P353L (Homo sapiens) (UniProt Q96QS3); ARX P353R (Homo sapiens) (UniProt Q96QS3); ARX R332H (Homo sapiens) (UniProt Q96QS3); ARX T333N (Homo sapiens) (UniProt Q96QS3).
Holding throughout (conditions): PBM; conditions not shown; double strand, one strand shown; scale: upbm affinity estimate (log intensity, higher = more binding, comparable within an allelic series)

With CCCCCTGC [8-mer CCCCCTGC], the binding signal with ARX (Homo sapiens) was 10.3; with ARX L343Q (Homo sapiens), 10.1; with ARX P353L (Homo sapiens), 10.2; with ARX P353R (Homo sapiens) it was 9.93; with ARX R332H (Homo sapiens) it was 9.99; in the series with ARX T333N (Homo sapiens) it was 10.2.
GACCCCCA [8-mer GACCCCCA]: the binding signal with ARX (Homo sapiens) is 10.2; with ARX L343Q (Homo sapiens), 10.1; with ARX P353L (Homo sapiens) it was 10.2; with ARX P353R (Homo sapiens) it was 9.93; in the series with ARX R332H (Homo sapiens), 9.93; with ARX T333N (Homo sapiens) it was 10.2.
For GCCCCGGA [8-mer GCCCCGGA], the binding signal with ARX (Homo sapiens) was 10.2; in the series with ARX L343Q (Homo sapiens), 10.2; in the series with ARX P353L (Homo sapiens) it was 10.2; with ARX P353R (Homo sapiens), 10.2; with ARX R332H (Homo sapiens), 10.3; in the series with ARX T333N (Homo sapiens), 10.3.
With CCTGCAGG [8-mer CCTGCAGG], the binding signal with ARX (Homo sapiens) is 10.3; with ARX L343Q (Homo sapiens), 10.3; with ARX P353L (Homo sapiens), 10.3; in the series with ARX P353R (Homo sapiens), 10.4; with ARX R332H (Homo sapiens), 10.3; with ARX T333N (Homo sapiens), 10.3.
In the case of CCGGACCA [8-mer CCGGACCA], the binding signal with ARX (Homo sapiens), in the series with ARX L343Q (Homo sapiens), with ARX P353L (Homo sapiens), in the series with ARX P353R (Homo sapiens), with ARX R332H (Homo sapiens) and in the series with ARX T333N (Homo sapiens) was 10.2 each time.
With CGCCGGAG [8-mer CGCCGGAG], the binding signal is 10.3 in the series with ARX (Homo sapiens); 10.3 in the series with ARX L343Q (Homo sapiens); 10.3 with ARX P353L (Homo sapiens); 10.2 in the series with ARX P353R (Homo sapiens); 10.2 in the series with ARX R332H (Homo sapiens); 10.4 with ARX T333N (Homo sapiens).
For GACGCCCC [8-mer GACGCCCC], the binding signal with ARX (Homo sapiens) is 10.2; in the series with ARX L343Q (Homo sapiens) it was 10; in the series with ARX P353L (Homo sapiens), 10.2; with ARX P353R (Homo sapiens) it was 10; with ARX R332H (Homo sapiens), 10; in the series with ARX T333N (Homo sapiens) it was 10.3.
For CCACGCGC [8-mer CCACGCGC], the binding signal with ARX (Homo sapiens) was 10.2; in the series with ARX L343Q (Homo sapiens) it was 10.1; in the series with ARX P353L (Homo sapiens), 10.2; with ARX P353R (Homo sapiens) it was 10.1; with ARX R332H (Homo sapiens), 10.1; with ARX T333N (Homo sapiens) it was 10.2.
In the case of CCCCACGC [8-mer CCCCACGC], the binding signal was 10.1 in the series with ARX (Homo sapiens); 10.1 with ARX L343Q (Homo sapiens); 10.1 with ARX P353L (Homo sapiens); 9.95 in the series with ARX P353R (Homo sapiens); 10.1 with ARX R332H (Homo sapiens); 10.2 with ARX T333N (Homo sapiens).
CGCAGCGC [8-mer CGCAGCGC]: the binding signal with ARX (Homo sapiens) was 10.1; with ARX L343Q (Homo sapiens), 10.1; with ARX P353L (Homo sapiens), 10.1; in the series with ARX P353R (Homo sapiens) it was 10; with ARX R332H (Homo sapiens) it was 10.2; in the series with ARX T333N (Homo sapiens), 10.2.
As to ACCGGCAG [8-mer ACCGGCAG], the binding signal is 10.2 in the series with ARX (Homo sapiens); 10.3 with ARX L343Q (Homo sapiens); 10.2 with ARX P353L (Homo sapiens); 10.1 in the series with ARX P353R (Homo sapiens); 10.2 in the series with ARX R332H (Homo sapiens); 10.2 with ARX T333N (Homo sapiens).
Regarding GACCAGGC [8-mer GACCAGGC], the binding signal with ARX (Homo sapiens) was 10.3; in the series with ARX L343Q (Homo sapiens), 10.1; with ARX P353L (Homo sapiens), 10.4; with ARX P353R (Homo sapiens), 10.1; in the series with ARX R332H (Homo sapiens), 10.1; in the series with ARX T333N (Homo sapiens) it was 10.2.
As for CGAAGGGC [8-mer CGAAGGGC], the binding signal in the series with ARX (Homo sapiens) is 10.1; with ARX L343Q (Homo sapiens) it was 10.1; in the series with ARX P353L (Homo sapiens) it was 10.1; with ARX P353R (Homo sapiens), 10.2; in the series with ARX R332H (Homo sapiens) it was 10.2; with ARX T333N (Homo sapiens), 10.1.
For the sequence GCTTTGCC [8-mer GCTTTGCC], the binding signal in the series with ARX (Homo sapiens) was 10.4; in the series with ARX L343Q (Homo sapiens), 10.3; in the series with ARX P353L (Homo sapiens) it was 10.4; with ARX P353R (Homo sapiens), 10.3; with ARX R332H (Homo sapiens), 10.2; in the series with ARX T333N (Homo sapiens), 10.4.
Consider AGCCCCCG [8-mer AGCCCCCG], for which the binding signal was 10.2 with ARX (Homo sapiens); 10 in the series with ARX L343Q (Homo sapiens); 10.1 in the series with ARX P353L (Homo sapiens); 9.86 in the series with ARX P353R (Homo sapiens); 9.97 in the series with ARX R332H (Homo sapiens); 10.2 in the series with ARX T333N (Homo sapiens).
Turning to GCTGGCCC [8-mer GCTGGCCC], the binding signal was 10.2 in the series with ARX (Homo sapiens); 10.1 with ARX L343Q (Homo sapiens); 10.2 with ARX P353L (Homo sapiens); 10.1 with ARX P353R (Homo sapiens); 10.1 with ARX R332H (Homo sapiens); 10.2 in the series with ARX T333N (Homo sapiens).
As for CAGTCGGG [8-mer CAGTCGGG], the binding signal with ARX (Homo sapiens) was 10.2; in the series with ARX L343Q (Homo sapiens), 10.2; with ARX P353L (Homo sapiens), 10.2; in the series with ARX P353R (Homo sapiens), 10.2; with ARX R332H (Homo sapiens), 10.2; with ARX T333N (Homo sapiens) it was 10.3.
In the case of GCGCGGCA [8-mer GCGCGGCA], the binding signal is 10.1 in the series with ARX (Homo sapiens); 10.1 in the series with ARX L343Q (Homo sapiens); 10.1 with ARX P353L (Homo sapiens); 10 with ARX P353R (Homo sapiens); 10.1 with ARX R332H (Homo sapiens); 10.2 with ARX T333N (Homo sapiens).
For the sequence CCCAGGGC [8-mer CCCAGGGC], the binding signal with ARX (Homo sapiens) was 10.1; with ARX L343Q (Homo sapiens), 10.1; with ARX P353L (Homo sapiens), 10.1; with ARX P353R (Homo sapiens) it was 10.1; with ARX R332H (Homo sapiens), 10.2; in the series with ARX T333N (Homo sapiens), 10.3.
Regarding CAATTTAG [8-mer CAATTTAG], the binding signal is 12 in the series with ARX (Homo sapiens); 10.8 with ARX L343Q (Homo sapiens); 11.6 in the series with ARX P353L (Homo sapiens); 10.7 with ARX P353R (Homo sapiens); 10.9 in the series with ARX R332H (Homo sapiens); 11.4 with ARX T333N (Homo sapiens).
AGGGGCTC [8-mer AGGGGCTC]: the binding signal with ARX (Homo sapiens) was 10.2; in the series with ARX L343Q (Homo sapiens), 10.2; in the series with ARX P353L (Homo sapiens) it was 10.2; in the series with ARX P353R (Homo sapiens) it was 10.1; with ARX R332H (Homo sapiens), 10.2; in the series with ARX T333N (Homo sapiens) it was 10.2.
